Reference: the supplement of paper PMC7125110
± gives the standard error. This sample is rich in variants without activity.

B1: glmS ribozyme (parent)
chain: AUAAAAGCGCCAGAACUACAGAAAUGUAGUUGACGAGGAGGAGGUUUAUCGAAUUUUCGGCGGAUGCCUCCAAA

Legend:
Conditions in all cases: with glucosamine-6-phosphate
[1] = variants of: B1; experiment: self-cleavage kobs at 40 uM GlcN6P; higher = faster cleavage; RNA array
Summary of the method: (§1)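 Barcoded ribozyme variants on sequenced MiSeq chips were transcribed in situ by E. coli RNA polymerase and followed at 37 °C through a hybridised Cy3 probe. Glucosamine-6-phosphate at 40 μM to 10 mM in HEPES/KCl/Mg(OAc)2 buffer was flowed in, and tiles were imaged over ~14 h. Signals were normalised to baseline and to non-cleaving reference variants, and per-tile medians were fit to one- or two-exponential decays to give kobs. Weighted Michaelis–Menten fits across concentrations gave kcat and KM.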

[2] = variants of: B1; experiment: self-cleavage kobs at 640 uM GlcN6P; higher = faster cleavage; RNA array
Summary of the method: as §1

[3] = variants of: B1; experiment: self-cleavage kobs at 160 uM GlcN6P; higher = faster cleavage; RNA array
Summary of the method: as §1

[4] = variants of: B1; experiment: self-cleavage kobs at 2500 uM GlcN6P; higher = faster cleavage; RNA array
Summary of the method: as §1

[5] = variants of: B1; experiment: self-cleavage kobs at 10000 uM GlcN6P; higher = faster cleavage; RNA array
Summary of the method: as §1

| Variant | self-cleavage kobs at 40 uM GlcN6P [1] [s⁻¹] | self-cleavage kobs at 640 uM GlcN6P [2] [s⁻¹] | self-cleavage kobs at 160 uM GlcN6P [3] [s⁻¹] | self-cleavage kobs at 2500 uM GlcN6P [4] [s⁻¹] | self-cleavage kobs at 10000 uM GlcN6P [5] [s⁻¹] |
| --- | --- | --- | --- | --- | --- |
| AUAAAAGCGCCAGAACUACAGAAAUGUAGUUGACGAGGAGGAUGUUUAGCGAAUUUUCGGCGGAUGCCUCCAAA [G43U U49G] | < 1e-05 | < 1e-05 | < 1e-05 | < 1e-05 | < 1e-05 |
| AUAAAAGCGCCAGAACUACAGAAAUGUAGUUGACGAGGAGGAUAUUUGUCGAAUUUUAGGCGGAUGCCACGAAA [G43U G44A A48G C58A U69A C71G] | < 1e-05 |  | < 1e-05 | < 1e-05 | < 1e-05 |
| AUAAAAGCGCCAGAACUACAGAAAUGUAGUUGACGAGGAGGAUGUUUAUCGAAUUUUCGGCGGAUGGCUCCAAA [G43U C67G] | 7.18e-05 ± 1e-05 | 0.000597 ± 8.6e-05 | 0.00022 ± 6e-05 | 0.00117 ± 0.0002 | 0.00166 ± 0.00022 |
| AUAAAAGCGCCAGAACUACAGAAAUGUAGUUGACGAGGAGGAUGUUUAUCGAAUUUUCGGCGGAUACCUCCAAA [G43U G66A] | < 1e-05 |  |  |  |  |
| AUAAAAGCGCCAGAACUACAGAAAUGUAGUUGACGAGGAGGAUGUAUAUCGAAUUUUCGGCGGAUGCCUCCAAA [G43U U46A] | < 1e-05 |  | < 1e-05 |  |  |
| AUAAAAGCGCCAGAACUACAGAAAUGUAGUUGACGAGGAGGAUGUUUAUCGAAUUUUCGGCGGAUGCCUCAAAA [G43U C71A] | < 1e-05 | < 1e-05 | < 1e-05 |  | < 1e-05 |
| AUAAAAGCGCCAGAACUACAGAAAUGUAGUUGACGAGGAGGAUGUUUAUCGCAUUUUCGGCGGAUGCCUCCAAA [G43U A52C] | < 1e-05 | < 1e-05 | < 1e-05 | < 1e-05 | < 1e-05 |
| AUAAAAGCGCCAGAACUACAGAAAUGUAGUUGACGAGGAGGAUGUUUGUCGAAUUUUCGGCGGAUGCCUCCAAA [G43U A48G] | < 1e-05 | < 1e-05 | < 1e-05 | < 1e-05 | < 1e-05 |
| AUAAAAGCGCCAGAACUACAGAAAUGUAGUUGACGAGGAGGAUGUUUCUCGAAUUUUCGGCGGAUGCCUCCAAA [G43U A48C] | < 1e-05 |  |  |  |  |
| AUAAAAGCGCCAGAACUACAGAAAUGUAGUUGACGAGGAGGAUGUUUUUCGAAUUUUCGGCGGAUGCCUCCAAA [G43U A48U] | < 1e-05 | < 1e-05 | < 1e-05 | < 1e-05 | < 1e-05 |
| AUAAAAGCGCCAGAACUACAGAAAUGUAGUUGACGAGGAGGAUGUUUAUCGAAUUUUCGACGCAUGCCUCCAAA [G43U G60A G63C] | < 1e-05 |  |  |  |  |
| AUAAAAGCGCCAGAACUACAGAAAUGUAGUUGACGAGGAGGAUGUUUAUCGAAUUUUCGGCGGAUGCCUGCAAA [G43U C70G] | < 1e-05 | < 1e-05 | < 1e-05 | < 1e-05 | < 1e-05 |
| AUAAAAGCGCCAGAACUACAGAAAUGUAGUUGACGAGGAGGAUGUUUAUCGAAUUUUCGGCGGAGGCCUCCAAA [G43U U65G] | < 1e-05 |  |  |  | 3.53e-05 ± 1.1e-05 |
| AUAAAAGCGCCAGAACUACAGAAAUGUAGUUGACGAGGAGGAUGUUUAUCGAAUUUUCGGUGGAUGCUUCCAAA [G43U C61U C68U] | < 1e-05 | < 1e-05 |  |  | < 1e-05 |
| AUAAAAGCGCCAGAACUACAGAAAUGUAGUUGACGAGGAGGAGAUUUAUCGAAUUUUCGGCGGUUGCCUCCAAA [G44A A64U] | < 1e-05 | < 1e-05 | < 1e-05 | < 1e-05 | < 1e-05 |
| AUAAAAGCGCCAGAACUACAGAAAUGUAGUUGACGAGGAGGAUGUUUAUCGAAUUUUCGGCGAAUGCCUCCAAA [G43U G63A] | < 1e-05 | < 1e-05 |  | < 1e-05 |  |
| AUAAAAGCGCCAGAACUACAGAAAUGUAGUUGACGAGGAGGAUGUUUAUCGAAUUUUCGGGGGAUGCCUCCAAA [G43U C61G] | < 1e-05 | < 1e-05 |  |  |  |
| AUAAAAGCGCCAGAACUACAGAAAUGUAGUUGACGAGGAGGACGUUUAUCGAAGUUUCGGCGGAUGCCUCCAAA [G43C U54G] | < 1e-05 | < 1e-05 | < 1e-05 |  |  |
| AUAAAAGCGCCAGAACUACAGAAAUGUAGUUGACGAGGAGGAUGUUUAUCGAAUUUUCGGCGGAUGCAUCCAAA [G43U C68A] | 0.00235 ± 0.00036 | 0.0194 ± 0.0032 | 0.00333 ± 0.00054 | 0.0175 ± 0.005 | 0.0761 ± 0.024 |
| AUAAAAGCGCCAGAACUACAGAAAUGUAGUUGACGAGGAGGAUGUUUAUCGAAUUUUCGGCGGAUGCGUCCAAA [G43U C68G] | 0.000533 ± 9.6e-05 |  |  |  |  |
| AUAAAAGCGCCAGAACUACAGAAAUGUAGUUGACGAGGAGGAGAUUUAUCGAAUUUUUGGCGGAUGCCUCCAAA [G44A C58U] | < 1e-05 | < 1e-05 | < 1e-05 | < 1e-05 | < 1e-05 |
| AUAAAAGCGCCAGAACUACAGAAAUGUAGUUGACGAGGAGGAUGCUUAUCGAAUUUUCGGCGGAUGCCUCCAAA [G43U U45C] | < 1e-05 |  |  |  |  |
| AUAAAAGCGCCAGAACUACAGAAAUGUAGUUGACGAGGAGGAGAUUUAUCGAAUUUUCGGCGGAUGCCUCCAAA [G44A] | < 1e-05 |  |  |  |  |
| AUAAAAGCGCCAGAACUACAGAAAUGUAGUUGACGAGGAGGAUGUUUAUCGAAUUUUCGGGGGACGCCUCCAAA [G43U C61G U65C] | < 1e-05 |  |  |  | < 1e-05 |
| AUAAAAGCGCCAGAACUACAGAAAUGUAGUUGACGAGGAGGAUGUUUAUCGGAUUUUCGGUGGAUAGCUCCAAA [G43U A52G C61U G66A C67G] | < 1e-05 | < 1e-05 |  |  |  |
